# According to the supplement of paper PMC8728848:
# The list shows a part of the results.
# B1: GNAT (Pseudomonas aeruginosa), Q9HV14 (protein)
# chain: MQLSHRPAETGDLETVAGFPQDRDELFYCYPKAIWPFSVAQLAAAIAERRGSTVAVHDGQVLGFANFYQWQHGDFCALGNMMVAPAARGLGVARYLIGVMENLAREQYKARLMKISCFNANAAGLLLYTQLGYQPRAIAERHDPDGRRVALIQMDKPLEP
# Assays:
# Assay in all cases: glycan array binding signal (z-score within array); higher = stronger binding
# Settings in all cases: glycan notation: IUPAC condensed, linker removed
# Fuc(a1-2)Gal = target: Fuc(a1-2)Gal
# Outline: (§1)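 From the Consortium for Functional Glycomics database, 3228 arrays were curated, keeping only those whose protein sequence was available. Binding is given as a within-array Z-score averaged across arrays sharing a protein sequence and across linkers. Negative Z-scores can be read as non-binding.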
# Fuc(a1-2)Gal(b1-3)GalNAc = target: Fuc(a1-2)Gal(b1-3)GalNAc
# Outline: as §1
# [1] = target: Fuc(a1-2)Gal(b1-3)GalNAc(a1-3)[Fuc(a1-2)]Gal(b1-4)Glc
# Outline: as §1
# [2] = target: Fuc(a1-2)Gal(b1-3)GalNAc(a1-3)[Fuc(a1-2)]Gal(b1-4)GlcNAc
# Outline: as §1
# [3] = target: Fuc(a1-2)Gal(b1-3)GalNAc(b1-3)Gal
# Outline: as §1
# [4] = target: Fuc(a1-2)Gal(b1-3)GalNAc(b1-3)Gal(a1-4)Gal(b1-4)Glc
# Outline: as §1
# [5] = target: Fuc(a1-2)Gal(b1-3)GalNAc(b1-4)[Neu5Ac(a2-3)]Gal(b1-4)Glc
# Outline: as §1
# Fuc(a1-2)Gal(b1-3)GlcNAc = target: Fuc(a1-2)Gal(b1-3)GlcNAc
# Outline: as §1
# [6] = target: Fuc(a1-2)Gal(b1-3)GlcNAc(b1-2)Man(a1-3)[Fuc(a1-2)Gal(b1-3)GlcNAc(b1-2)Man(a1-6)]Man(b1-4)GlcNAc(b1-4)GlcNAc
# Outline: as §1
# [7] = target: Fuc(a1-2)Gal(b1-3)GlcNAc(b1-2)Man(a1-3)[Fuc(a1-2)Gal(b1-3)GlcNAc(b1-2)Man(a1-6)]Man(b1-4)GlcNAc(b1-4)[Fuc(a1-6)]GlcNAc
# Outline: as §1
# [8] = target: Fuc(a1-2)Gal(b1-3)GlcNAc(b1-3)Gal(b1-4)Glc
# Outline: as §1
# [9] = target: Fuc(a1-2)Gal(b1-3)GlcNAc(b1-3)GalNAc
# Outline: as §1
# [10] = target: Fuc(a1-2)Gal(b1-3)GlcNAc(b1-3)[Fuc(a1-3)[Gal(b1-4)]GlcNAc(b1-6)]Gal(b1-4)Glc
# Outline: as §1
# [11] = target: Fuc(a1-2)Gal(b1-3)GlcNAc(b1-3)[Gal(b1-4)GlcNAc(b1-6)]Gal(b1-4)Glc
# Outline: as §1
# [12] = target: Fuc(a1-2)Gal(b1-3)GlcNAc(b1-3)[Neu5Ac(a2-6)Gal(b1-4)GlcNAc(b1-6)]Gal(b1-4)Glc
# Outline: as §1
# [13] = target: Fuc(a1-2)Gal(b1-3)[Fuc(a1-4)]GlcNAc
# Outline: as §1
# [14] = target: Fuc(a1-2)Gal(b1-3)[Fuc(a1-4)]GlcNAc(b1-2)Man(a1-3)[Fuc(a1-2)Gal(b1-3)[Fuc(a1-4)]GlcNAc(b1-2)Man(a1-6)]Man(b1-4)GlcNAc(b1-4)GlcNAc
# Outline: as §1
# [15] = target: Fuc(a1-2)Gal(b1-3)[Fuc(a1-4)]GlcNAc(b1-3)[Fuc(a1-3)[Gal(b1-4)]GlcNAc(b1-6)]Gal(b1-4)Glc
# Outline: as §1
# [16] = target: Fuc(a1-2)Gal(b1-3)[Fuc(a1-4)]GlcNAc(b1-3)[Gal(b1-4)GlcNAc(b1-6)]Gal(b1-4)Glc
# Outline: as §1
# Fuc(a1-2)Gal(b1-4)Glc = target: Fuc(a1-2)Gal(b1-4)Glc
# Outline: as §1
# Fuc(a1-2)Gal(b1-4)Glc6S = target: Fuc(a1-2)Gal(b1-4)Glc6S
# Outline: as §1
# Fuc(a1-2)Gal(b1-4)GlcNAc = target: Fuc(a1-2)Gal(b1-4)GlcNAc
# Outline: as §1
# [17] = target: Fuc(a1-2)Gal(b1-4)GlcNAc(b1-2)Man(a1-3)[Fuc(a1-2)Gal(b1-4)GlcNAc(b1-2)Man(a1-6)]Man(b1-4)GlcNAc(b1-4)GlcNAc
# Outline: as §1
# [18] = target: Fuc(a1-2)Gal(b1-4)GlcNAc(b1-2)Man(a1-3)[Fuc(a1-2)Gal(b1-4)GlcNAc(b1-2)Man(a1-6)]Man(b1-4)GlcNAc(b1-4)[Fuc(a1-6)]GlcNAc
# Outline: as §1
# [19] = target: Fuc(a1-2)Gal(b1-4)GlcNAc(b1-2)[Fuc(a1-2)Gal(b1-4)GlcNAc(b1-4)]Man(a1-3)[Fuc(a1-2)Gal(b1-4)GlcNAc(b1-2)Man(a1-6)]Man(b1-4)GlcNAc(b1-4)GlcNAc
# Outline: as §1
# [20] = target: Fuc(a1-2)Gal(b1-4)GlcNAc(b1-3)Gal(b1-4)GlcNAc
# Outline: as §1
# [21] = target: Fuc(a1-2)Gal(b1-4)GlcNAc(b1-3)Gal(b1-4)GlcNAc(b1-3)Gal(b1-4)GlcNAc
# Outline: as §1
# [22] = target: Fuc(a1-2)Gal(b1-4)GlcNAc(b1-3)GalNAc
# Outline: as §1
# [23] = target: Fuc(a1-2)Gal(b1-4)GlcNAc(b1-3)[Fuc(a1-2)Gal(b1-4)GlcNAc(b1-6)]GalNAc
# Outline: as §1
# [24] = target: Fuc(a1-2)Gal(b1-4)GlcNAc6S
# Outline: as §1
binder,measurement,setting,value
B1,glycan array binding signal (z-score),Fuc(a1-2)Gal,-0.436
same,glycan array binding signal (z-score),Fuc(a1-2)Gal(b1-3)GalNAc,-0.402
same,glycan array binding signal (z-score),[1],-0.404
same,glycan array binding signal (z-score),[2],-0.451
same,glycan array binding signal (z-score),[3],-0.267
same,glycan array binding signal (z-score),[4],-0.309
same,glycan array binding signal (z-score),[5],-0.412
same,glycan array binding signal (z-score),Fuc(a1-2)Gal(b1-3)GlcNAc,-0.4
same,glycan array binding signal (z-score),[6],-0.307
same,glycan array binding signal (z-score),[7],-0.406
same,glycan array binding signal (z-score),[8],-0.447
same,glycan array binding signal (z-score),[9],-0.347
same,glycan array binding signal (z-score),[10],-0.441
same,glycan array binding signal (z-score),[11],-0.366
same,glycan array binding signal (z-score),[12],-0.205
same,glycan array binding signal (z-score),[13],-0.365
same,glycan array binding signal (z-score),[14],2.54
same,glycan array binding signal (z-score),[15],-0.247
same,glycan array binding signal (z-score),[16],-0.016
same,glycan array binding signal (z-score),Fuc(a1-2)Gal(b1-4)Glc,-0.339
same,glycan array binding signal (z-score),Fuc(a1-2)Gal(b1-4)Glc6S,-0.303
same,glycan array binding signal (z-score),Fuc(a1-2)Gal(b1-4)GlcNAc,-0.363
same,glycan array binding signal (z-score),[17],-0.246
same,glycan array binding signal (z-score),[18],-0.349
same,glycan array binding signal (z-score),[19],-0.191
same,glycan array binding signal (z-score),[20],-0.45
same,glycan array binding signal (z-score),[21],-0.403
same,glycan array binding signal (z-score),[22],-0.406
same,glycan array binding signal (z-score),[23],0.212
same,glycan array binding signal (z-score),[24],-0.301
